Results are given in words; binding and its absence hold for the method and conditions named. In cells and extracts the contact can be indirect. Some results given as binding are weak or reduced against the parent protein; the word gives no strength. For part of these data: Sequences can lack the tags named with a protein.
B1: TACI fused to ECFP or EYFP (receptor, UniProt O14836 1-293)
chain: MSGLGRSRRGGRSRVDQEERFPQGLWTGVAMRSCPEEQYWDPLLGTCMSCKTICNHQSQRTCAAFCRSLSCRKEQGKFYDHLLRDCISCASICGQHPKQCAYFCENKLRSPVNLPPELRRQRSGEVENNSDNSGRYQGLEHRGSEASPALPGLKLSADQVALVYSTLGLCLCAVLCCFLVAVACFLKKRGDPCSCQPRSRPRQSPAKSSQDHAMEAGSPVSTSPEPVETCSFCFPECRAPTQESAVTPGTPDPTCAGRWGCHTRTTVLQPCPHIPDSGLGIVCVPAQEGGPGA

Chains of the proteins cited; added tags and fusions are not shown. Residues count along the entry.
UniProt P25942, residues 21-277: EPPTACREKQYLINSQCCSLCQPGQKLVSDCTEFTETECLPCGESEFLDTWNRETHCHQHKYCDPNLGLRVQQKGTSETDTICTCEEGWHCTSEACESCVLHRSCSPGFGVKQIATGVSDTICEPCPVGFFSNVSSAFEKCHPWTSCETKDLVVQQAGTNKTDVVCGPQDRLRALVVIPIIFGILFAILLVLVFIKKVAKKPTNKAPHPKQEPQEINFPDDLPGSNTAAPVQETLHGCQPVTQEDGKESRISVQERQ
UniProt Q96RJ3: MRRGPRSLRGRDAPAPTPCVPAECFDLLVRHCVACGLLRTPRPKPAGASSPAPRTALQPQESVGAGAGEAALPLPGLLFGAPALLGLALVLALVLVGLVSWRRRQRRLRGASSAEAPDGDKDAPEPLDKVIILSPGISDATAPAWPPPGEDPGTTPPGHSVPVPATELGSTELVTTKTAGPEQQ
UniProt Q02223: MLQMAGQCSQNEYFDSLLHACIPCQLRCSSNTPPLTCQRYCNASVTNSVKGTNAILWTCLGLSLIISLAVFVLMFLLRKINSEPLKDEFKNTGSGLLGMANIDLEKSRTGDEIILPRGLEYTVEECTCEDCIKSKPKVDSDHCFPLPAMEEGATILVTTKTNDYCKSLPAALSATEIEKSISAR
UniProt P25445, residues 26-335: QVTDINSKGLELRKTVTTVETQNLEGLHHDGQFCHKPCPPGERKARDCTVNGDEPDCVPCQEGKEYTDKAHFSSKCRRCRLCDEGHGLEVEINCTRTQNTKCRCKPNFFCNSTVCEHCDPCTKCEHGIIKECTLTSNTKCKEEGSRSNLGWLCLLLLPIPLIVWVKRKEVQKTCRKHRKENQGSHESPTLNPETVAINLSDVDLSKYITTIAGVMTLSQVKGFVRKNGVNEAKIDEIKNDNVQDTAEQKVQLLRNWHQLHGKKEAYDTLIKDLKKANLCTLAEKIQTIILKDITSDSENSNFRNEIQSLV
UniProt O00220, residues 24-468: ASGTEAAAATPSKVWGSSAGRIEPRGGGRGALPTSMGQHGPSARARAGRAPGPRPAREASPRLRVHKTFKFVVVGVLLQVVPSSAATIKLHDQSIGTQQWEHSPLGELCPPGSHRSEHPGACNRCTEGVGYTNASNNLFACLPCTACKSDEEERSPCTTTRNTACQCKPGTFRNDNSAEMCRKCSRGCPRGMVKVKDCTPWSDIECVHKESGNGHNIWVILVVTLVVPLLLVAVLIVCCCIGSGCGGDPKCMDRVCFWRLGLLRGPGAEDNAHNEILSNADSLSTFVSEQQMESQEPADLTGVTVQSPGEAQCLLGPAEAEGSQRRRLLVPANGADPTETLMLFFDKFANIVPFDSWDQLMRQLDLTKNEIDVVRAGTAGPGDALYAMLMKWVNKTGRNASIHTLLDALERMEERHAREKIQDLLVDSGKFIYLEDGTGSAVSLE

Columns and labels:
[1] = target: CD40 fused to ECFP or EYFP (UniProt P25942); test: FRET or BRET; flow cytometry FRET; HEK 293T cells transiently co-transfected with ECFP and EYFP fusion receptors, analysed 16-20 h post-transfection; percentage of FRET-positive cells gated with an ECFP-EYFP fusion protein (positive) and ECFP/EYFP co-transfection (negative); no ligand
[2] = target: CD40, endogenous (human (endogenous in BJAB and primary human B cells)) (UniProt P25942); test: co-IP; native membrane fraction (ProteoExtract kit) of 1 x 10^7 TRAILR2-negative BJAB cells; agarose-conjugated anti-CD40 or protein A-loaded anti-Fas and anti-TRAILR2 antibodies; western blot; endogenous proteins
[3] = target: CD40, endogenous (human (endogenous in BJAB and primary human B cells)) (UniProt P25942); test: proximity ligation; Duolink in situ PLA on fixed primary human B cells, non stimulated, activated with PMA/ionomycin or with anti-BCR (anti-IgM/IgG) plus CD40L; three donors
[4] = target: CD40, endogenous (human (endogenous in BJAB and primary human B cells)) (UniProt P25942); test: proximity ligation; Duolink in situ PLA on fixed TRAILR2-negative BJAB cells; rabbit anti-CD40 with mouse anti-CD95 or mouse anti-DR5; spots per cell counted in the focal plane
[5] = target: CD40, endogenous (human (endogenous in BJAB and primary human B cells)) (UniProt P25942); test: co-IP; native membrane fraction (ProteoExtract kit) of 1 x 10^7 TRAILR2-positive BJAB cells; agarose-conjugated anti-CD40 or protein A-loaded anti-Fas and anti-TRAILR2 antibodies; western blot; endogenous proteins
[6] = target: CD40, endogenous (human (endogenous in BJAB and primary human B cells)) (UniProt P25942); test: proximity ligation; Duolink in situ PLA on fixed TRAILR2-positive BJAB cells; rabbit anti-CD40 with mouse anti-CD95 or mouse anti-DR5; spots per cell counted in the focal plane

Molecule | binding [1] | also measured
BAFFR fused to ECFP or EYFP (from UniProt Q96RJ3 1-184) (receptor) | no binding | –
BCMA fused to ECFP or EYFP (from UniProt Q02223 1-184) (receptor) | no binding | –
ErbB1 fused to ECFP or EYFP (from UniProt P00533 25-1210) (receptor) | no binding | –
ErbB2 fused to ECFP or EYFP (from UniProt P04626 23-1255) (receptor) | no binding | –
Fas fused to ECFP or EYFP (from UniProt P25445 26-335) (receptor) | binds | –
Fas, endogenous (from UniProt P25445 26-335) (receptor) | – | binding [2]: binds; binding [3]: binds; binding [4]: binds; binding [5]: no binding (condition: in TRAILR2-positive BJAB cells); binding [6]: no binding (condition: in TRAILR2-positive BJAB cells)
TRAIL receptor 1 fused to ECFP or EYFP (from UniProt O00220 24-468) | no binding | –
B1 | no binding | –

From PMC5386471
